For five molecules, Kd results are on record in patent publication US20250019440A1 (Zymeworks, published 2025).

Assay [1] has as its target Human CD3 (recombinant) (human). Kind of assay: SPR, CD3 amine-coupled, variant as analyte, 1:1 model. In general terms: Surface plasmon resonance follows binding to a sensor surface in real time, without labels.
In assay [2] the target is T1, Human PD-L1 (human, UniProt Q9NZQ7 part only).
T1 construct: Amine-coupled to a CM5 chip for SPR; also called recombinant human PD-L1
Briefly: SPR, PD-L1 amine-coupled, variant as analyte, 1:1 model.

In assay [3] the target is T2, Human mesothelin (human, UniProt Q13421 296-580, limits assumed).
T2 construct: Amine-coupled to a CM5 chip for SPR; also called MSLN; recombinant human mesothelin
Briefly: SPR, mesothelin amine-coupled, variant as analyte, 1:1 model.

Assay [4] has as its target Human CD3 (recombinant) (human). Kind of assay: SPR, CD3 amine-coupled, variant as analyte, 1:1 model. This is another data set of the same source.
Assay [5] addresses T1, Human PD-L1. Briefly: SPR, PD-L1 amine-coupled, variant as analyte, 1:1 model. This is another data set of the same source.
For assay [6], the target named is T3, Mouse PD-L1 (mouse, UniProt Q9EP73 part only, limits assumed).
T3 construct: Amine-coupled to a CM5 chip for SPR; also called recombinant mouse PD-L1
Described as above.

The target in assay [7] is T4, Cynomolgus monkey PD-L1 (cynomolgus monkey, UniProt G7PSE7 19-239).
T4 construct: Amine-coupled to a CM5 chip for SPR; also called recombinant cynomolgus monkey PD-L1
Described as above.

The target in assay [8] is T1, Human PD-L1. The description is as above. This is another data set of the same source.

Where two headings read alike, the source gives them in different places.

T1 sequence (Q9NZQ7 19-239 limits assumed): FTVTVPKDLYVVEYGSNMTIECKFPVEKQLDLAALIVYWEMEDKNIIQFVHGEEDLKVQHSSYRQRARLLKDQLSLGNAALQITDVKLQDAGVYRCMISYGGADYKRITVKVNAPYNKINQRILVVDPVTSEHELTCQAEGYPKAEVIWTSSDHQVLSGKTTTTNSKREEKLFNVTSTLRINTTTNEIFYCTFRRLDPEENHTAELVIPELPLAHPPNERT
T2 sequence (Q13421 other isoform, or with tags, fused parts or gaps limits assumed): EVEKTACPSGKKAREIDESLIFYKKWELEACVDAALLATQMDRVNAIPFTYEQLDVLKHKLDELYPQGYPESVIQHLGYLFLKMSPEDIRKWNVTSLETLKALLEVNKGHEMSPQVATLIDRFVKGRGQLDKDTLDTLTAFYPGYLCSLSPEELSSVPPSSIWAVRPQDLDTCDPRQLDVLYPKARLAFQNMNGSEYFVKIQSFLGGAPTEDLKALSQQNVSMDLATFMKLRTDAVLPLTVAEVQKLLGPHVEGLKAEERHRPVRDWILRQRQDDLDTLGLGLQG
T3 sequence (Q9EP73 19-238 limits assumed): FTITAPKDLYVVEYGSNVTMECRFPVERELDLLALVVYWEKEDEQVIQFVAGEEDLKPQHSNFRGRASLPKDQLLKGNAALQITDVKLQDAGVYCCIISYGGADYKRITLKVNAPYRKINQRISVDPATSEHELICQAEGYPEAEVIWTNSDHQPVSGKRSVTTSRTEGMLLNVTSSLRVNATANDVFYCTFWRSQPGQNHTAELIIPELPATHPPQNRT
T4 sequence (G7PSE7 entry or part of it): as the sequence (Q9NZQ7 19-239 limits assumed) above, with A33T, A34S, S62N, R68Q, Q82R, F173L, T185A, T192I, H215L counted along it

B1: v38441 (other)
heavy 1: [about 120 residues not shown]GGGSGQVQLVQSGAEVKKPGASVKVSCKASGYSFTGYTMNWVRQAPGQGLEWMGLITPYNGASSYNQKFRGKATMTVDTSTSTVYMELSSLRSEDTAVYYCARGGYDGRGFDYWGQGTLVTVSSASTKGPSVFPLAPSSKSTSGGTAALGCLVKDYFPEPVTVSWNSGALTSGVHTFPAVLQSSGLYSLSSVVTVPSSSLGTQTYICNVNHKPSNTKVDKKVEPKSCDKTHTCPPCPAPEAAGGPSVFLFPPKPKDTLMISRTPEVTCVVVSVSHEDPEVKFNWYVDGVEVHNAKTKPREEQYNSTYRVVSVLTVLHQDWLNGKEYKCKVSNKALPAPIEKTISKAKGQPREPQVYVLPPSRDELTKNQVSLLCLVKGFYPSDIAVEWESNGQPENNYLTWPPVLDSDGSFFLYSKLTVDKSRWQQGNVFSCSVMHEALHNHYTQKSLSLSPG
light: DIQMTQSPSSLSASVGDRVTITCSASSSVSYMHWYQQKSGKAPKLLIYDTSKLASGVPSRFSGSGSGTDFTLTISSLQPEDFATYYCQQWSKHPLTFGQGTKLEIKRTVAAPSVFIFPPSDEQLKSGTASVVCLLNNFYPREAKVQWKVDNALQSGNSQESVTEQDSKDSTYSLSSTLTLSKADYEKHKVYACEVTHQGLSSPVTKSFNRGEC
heavy 2: EVQLVESGGGLVQPGGSLRLSCAASGVTFNYYGMSWIRQAPGKGLEWVASITSSGGRIYYPDSVKGRFTISRENTQKTLYLQMNSLRAEDTAVYYCTLDGRDGWVAYWGQGTLVTVSSGGGGSGGGGSGGGGSGGGGSNFMLTQPHSVSESPGKTVTISCKRNTGNIGSNYVNWYQQHEGSSPTTIIYRNDKRPDGVSDRFSGSIDRSSKSASLTISNLKTEDEADYFCQSYSSGFIFGGGTKLTVLA[human IgG1 Fc with changes not shown]
As to B1, the Kd (usually the free concentration of one partner at which half of the binding sites on the other are occupied at equilibrium, for simple one-to-one binding) was found to be 40 nM in assay [1], 2.9 nM in assay [2] and 0.25 nM in assay [3].

B2: v38736 (other)
heavy 1: NPPTFSPALLVVTEGDNATFTCSFSNTSESFVLNWYRMSPSNQTDKLAAFPEDRSQPGQDARFRVTQLPNGRDFHMSVVRARRNDSGTYLCGAISLAPKAQIKESLRAELRVTEGGGGSGQVQLVESGGGLVQPGGSLRLSCSVSGIDLSSNPMIWVRQAPGKGLQYIGIIDTDGSTYYADWAKGRFTISKDSTTVYLQINSPRAEDTAVYYCARRLHGSSNGYYDDLWGQGTLVTVSSASTKGPSVFPLAPSSKSTSGGTAALGCLVKDYFPEPVTVSWNSGALTSGVHTFPAVLQSSGLYSLSSVVTVPSSSLGTQTYICNVNHKPSNTKVDKKVEPKSCDKTHTCPPCPAPEAAGGPSVFLFPPKPKDTLMISRTPEVTCVVVSVSHEDPEVKFNWYVDGVEVHNAKTKPREEQYNSTYRVVSVLTVLHQDWLNGKEYKCKVSNKALPAPIEKTISKAKGQPREPQVYVLPPSRDELTKNQVSLLCLVKGFYPSDIAVEWESNGQPENNYLTWPPVLDSDGSFFLYSKLTVDKSRWQQGNVFSCSVMHEALHNHYTQKSLSLSPG
light: DGQMTQSPSSVSASVGDRVTITCQASQSIYSYLSWYQQKPGQRPKLLIYKASTLASGVPSRFSGSGSGTDFTLTISSVQPEDFATYYCQQGYTVTNVDKNTFGGGTKVEIKRTVAAPSVFIFPPSDEQLKSGTASVVCLLNNFYPREAKVQWKVDNALQSGNSQESVTEQDSKDSTYSLSSTLTLSKADYEKHKVYACEVTHQGLSSPVTKSFNRGEC
heavy 2: EVQLVESGGGLVQPGGSLRLSCAASGVTFNYYGMSWIRQAPGKGLEWVASITSSGGRIYYPDSVKGRFTISRENTQKTLYLQMNSLRAEDTAVYYCTLDGRDGWVAYWGQGTLVTVSSGGGGSGGGGSGGGGSGGGGSNFMLTQPHSVSESPGKTVTISCKRNTGNIGSNYVNWYQQHEGSSPTTIIYRNDKRPDGVSDRFSGSIDRSSKSASLTISNLKTEDEADYFCQSYSSGFIFGGGTKLTVLA[human IgG1 Fc with changes not shown]
notes: Cldn18.2 Fab x CD3 scFv Fc, wildtype (WT) PD-1 attached to HC2 (N-term)
For B2, the Kd in assay [4] stood at 110 nM; in assay [5], 110 nM; in assay [6], 46 nM; in assay [7], 140 nM; in assay [8], 1600 nM.

B3: v38735 (other)
heavy 1: NPPTFSPALLVVTEGDNATFTCSFSNTSESFVLNWYRMSPSNQTDKLAAFPEDRSQPGQDARFRVTQLPNGRDFHMSVVRARRNDSGTYLCGAISLAPKLQIKESLRAELRVTEGGGGSGQVQLVESGGGLVQPGGSLRLSCSVSGIDLSSNPMIWVRQAPGKGLQYIGIIDTDGSTYYADWAKGRFTISKDSTTVYLQINSPRAEDTAVYYCARRLHGSSNGYYDDLWGQGTLVTVSSASTKGPSVFPLAPSSKSTSGGTAALGCLVKDYFPEPVTVSWNSGALTSGVHTFPAVLQSSGLYSLSSVVTVPSSSLGTQTYICNVNHKPSNTKVDKKVEPKSCDKTHTCPPCPAPEAAGGPSVFLFPPKPKDTLMISRTPEVTCVVVSVSHEDPEVKFNWYVDGVEVHNAKTKPREEQYNSTYRVVSVLTVLHQDWLNGKEYKCKVSNKALPAPIEKTISKAKGQPREPQVYVLPPSRDELTKNQVSLLCLVKGFYPSDIAVEWESNGQPENNYLTWPPVLDSDGSFFLYSKLTVDKSRWQQGNVFSCSVMHEALHNHYTQKSLSLSPG
light: DGQMTQSPSSVSASVGDRVTITCQASQSIYSYLSWYQQKPGQRPKLLIYKASTLASGVPSRFSGSGSGTDFTLTISSVQPEDFATYYCQQGYTVTNVDKNTFGGGTKVEIKRTVAAPSVFIFPPSDEQLKSGTASVVCLLNNFYPREAKVQWKVDNALQSGNSQESVTEQDSKDSTYSLSSTLTLSKADYEKHKVYACEVTHQGLSSPVTKSFNRGEC
heavy 2: EVQLVESGGGLVQPGGSLRLSCAASGVTFNYYGMSWIRQAPGKGLEWVASITSSGGRIYYPDSVKGRFTISRENTQKTLYLQMNSLRAEDTAVYYCTLDGRDGWVAYWGQGTLVTVSSGGGGSGGGGSGGGGSGGGGSNFMLTQPHSVSESPGKTVTISCKRNTGNIGSNYVNWYQQHEGSSPTTIIYRNDKRPDGVSDRFSGSIDRSSKSASLTISNLKTEDEADYFCQSYSSGFIFGGGTKLTVLA[human IgG1 Fc with changes not shown]
On to B3, for which the equilibrium dissociation constant (Kd) came to 82 nM in assay [4]; 74 nM in assay [5]; 57 nM in assay [6]; 110 nM in assay [7]; 300 nM in assay [8].

B4: v38520 (other)
heavy 1: [about 120 residues not shown]AAAKEAAAKEVQLVESGGGLVQPGGSLRLSCAASGVTFNYYGMSWIRQAPGKGLEWVASITSSGGRIYYPDSVKGRFTISRENTQKTLYLQMNSLRAEDTAVYYCTLDGRDGWVAYWGQGTLVTVSSASTKGPSVFPLAPSSKSTSGGTAALGCLVKDYFPEPVTVSWNSGALTSGVHTFPAVLQSSGLYSLSSVVTVPSSSLGTQTYICNVNHKPSNTKVDKK[human IgG1 Fc with changes not shown]
light: NFMLTQPHSVSESPGKTVTISCKRNTGNIGSNYVNWYQQHEGSSPTTIIYRNDKRPDGVSDRFSGSIDRSSKSASLTISNLKTEDEADYFCQSYSSGFIFGGGTKLTVLGQPKAAPSVTLFPPSSEELQANKATLVCLISDFYPGAVTVAWKADSSPVKAGVETTTPSKQSNNKYAASSYLSLTPEQWKSHRSYSCQVTHEGSTVEKTVAPTECS
heavy 2: DIQMTQSPSSLSASVGDRVTITCSASSSVSYMHWYQQKSGKAPKLLIYDTSKLASGVPSRFSGSGSGTDFTLTISSLQPEDFATYYCQQWSKHPLTFGQGTKLEIKGGGGSGGGGSGGGGSGGGGSQVQLVQSGAEVKKPGASVKVSCKASGYSFTGYTMNWVRQAPGQGLEWMGLITPYNGASSYNQKFRGKATMTVDTSTSTVYMELSSLRSEDTAVYYCARGGYDGRGFDYWGQGTLVTVSSAAEPKSSDKTHTCPPCPAPEAAGGPSVFLFPPKPKDTLMISRTPEVTCVVVSVSHEDPEVKFNWYVDGVEVHNAKTKPREEQYNSTYRVVSVLTVLHQDWLNGKEYKCKVSNKALPAPIEKTISKAKGQPREPQVYVLPPSRDELTKNQVSLLCLVKGFYPSDIAVEWESNGQPENNYLTWPPVLDSDGSFFLYSKLTVDKSRWQQGNVFSCSVMHEALHNHYTQKSLSLSPG
As to B4, the Kd stood at 79 nM in assay [1], 4.4 nM in assay [2] and 1 nM in assay [3].

B5: v38729 (other)
heavy 1: NPPTFSPALLVVTEGDNATFTCSFSNTSESFRLVWHRESPGYETDTLASFPEDRSTPLPDARFRVTQLPNGRDFHMSVVRARRNDSGTYVCGAIAFHPVIQIKESLRAELRVTEGGGGSGEVQLVESGGGLVQPGGSLRLSCAASGVTFNYYGMSWIRQAPGKGLEWVASITSSGGRIYYPDSVKGRFTISRENTQKTLYLQMNSLRAEDTAVYYCTLDGRDGWVAYWGQGTLVTVSSASTKGPSVFPLAPSSKSTSGGTAALGCLVKDYFPEPVTVSWNSGALTSGVHTFPAVLQSSGLYSLSSVVTVPSSSLGTQTYICNVNHKPSNTKVDKK[human IgG1 Fc with changes not shown]
light: NFMLTQPHSVSESPGKTVTISCKRNTGNIGSNYVNWYQQHEGSSPTTIIYRNDKRPDGVSDRFSGSIDRSSKSASLTISNLKTEDEADYFCQSYSSGFIFGGGTKLTVLGQPKAAPSVTLFPPSSEELQANKATLVCLISDFYPGAVTVAWKADSSPVKAGVETTTPSKQSNNKYAASSYLSLTPEQWKSHRSYSCQVTHEGSTVEKTVAPTECS
heavy 2: QVQLVESGGGLVQPGGSLRLSCSVSGIDLSSNPMIWVRQAPGKGLQYIGIIDTDGSTYYADWAKGRFTISKDSTTVYLQINSPRAEDTAVYYCARRLHGSSNGYYDDLWGQGTLVTVSSGGGGSGGGGSGGGGSGGGGSDGQMTQSPSSVSASVGDRVTITCQASQSIYSYLSWYQQKPGQRPKLLIYKASTLASGVPSRFSGSGSGTDFTLTISSVQPEDFATYYCQQGYTVTNVDKNTFGGGTKVEIKAAEPKSSDKTHTCPPCPAPEAAGGPSVFLFPPKPKDTLMISRTPEVTCVVVSVSHEDPEVKFNWYVDGVEVHNAKTKPREEQYNSTYRVVSVLTVLHQDWLNGKEYKCKVSNKALPAPIEKTISKAKGQPREPQVYVLPPSRDELTKNQVSLLCLVKGFYPSDIAVEWESNGQPENNYLTWPPVLDSDGSFFLYSKLTVDKSRWQQGNVFSCSVMHEALHNHYTQKSLSLSPG
With B5, the Kd came out at 2.9 nM in assay [4] and 59 nM in assay [8].
